Measurements reported in PubChem BioAssay AID1240 (Sanford-Burnham Center for Chemical Genomics, 2008).
Among all 50,000 compounds or so, about 800 (1.6%) showed an effect of 50% or more. Some of the results follow.

Each compound was assayed against Bcl-2-like protein 10 (Homo sapiens) (UniProt Q9HD36) (assay: TR3 peptide-Bcl-B binding displacers, biochemical primary FP assay, phenotype converters (AID 1240;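 note: 0% = Bcl-B with tracer peptide and DMSO and 100% = tracer peptide lacking Bcl-B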)). Conditions: GST-Bcl-B / FITC-TR3 peptide fluorescence polarization; stronger effect = higher value; compound at 3.75 mg/L.
UniProt Q9HD36, sequence (Q9HD36 whole entry, looked up): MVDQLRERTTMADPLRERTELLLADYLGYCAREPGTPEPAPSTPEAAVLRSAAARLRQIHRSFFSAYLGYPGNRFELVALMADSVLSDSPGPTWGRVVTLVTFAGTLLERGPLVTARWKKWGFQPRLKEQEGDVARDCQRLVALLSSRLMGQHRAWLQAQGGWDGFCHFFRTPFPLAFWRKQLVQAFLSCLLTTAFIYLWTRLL
Work on `O=C1CC(NCCc2ccc(Cl)cc2)C(=O)N1c1ccc(Cl)cc1` (centres undefined) yielded a displacement of -18.2%. `O=c1oc2ccc(Cl)cc2cc1-c1ccccc1` gave a displacement of 8%. In the case of `O=C(Nc1ccc(Cl)c(C(F)(F)F)c1)c1ccc(I)cc1`, the displacement is reported as 5.4%. `Cc1cccc(N2C(=O)CC(N3CCN(c4cccc(Cl)c4)CC3)C2=O)c1` (centres undefined) gave a displacement of 6.8%. `CC(Cc1ccccc1)NC(=S)Nc1ccccc1` (centres undefined) was tested, and the displacement was -10.2%. `CCOc1ccc(C(=O)c2cccc([N+](=O)[O-])c2)cc1` was tested, and the displacement was 11.7%. With `O=C(Nn1cnnc1)c1ccccc1Cl` the displacement was -1.5%. Compound `O=C(COC(=O)C(O)c1ccccc1)c1ccc2c(c1)OCCO2` (centres undefined) has a displacement of -8.1%. In the case of `Cc1ccc(C(=O)Nc2nc(-c3ccc(F)cc3)cs2)cc1`, the displacement is reported as -5.9%. For `CCOc1ccc(N(CC(=O)Nc2ccc(F)cc2)S(=O)(=O)c2ccc(SC)cc2)cc1`, the displacement was 10%. `COc1cc(/C=C/C(=O)c2c(-c3ccccc3)c3cc(Br)ccc3[nH]c2=O)cc(OC)c1OC` was tested, and the displacement was 10.5%. `COc1ccccc1NCC(=O)N/N=C/c1ccccc1OCc1ccc(Br)cc1` showed a displacement of 1.5%. Work on `Cc1ccccc1OCC(=O)Nc1cccc(NC(=O)c2cccc(Cl)c2)c1` yielded a displacement of -6.5%. For `CC1=C(C#N)c2nc(N)c(C#N)c(C)c2/C1=C/c1ccc(-c2ccc([N+](=O)[O-])cc2C)o1`, the displacement was -5.8%. For `O=C(Oc1ccccc1C(=S)N1CCOCC1)c1cccc2ccccc12`, the displacement was 9.2%. `COc1ccccc1CNC(=O)C(OC)c1ccccc1` (centres undefined) showed a displacement of -5.7%. `CC(=O)Nc1ccc(-c2nc3ccc(C)cc3s2)cc1` gave a displacement of -3.9%. `COC(=O)c1ccccc1Sc1c(-c2ccccc2)nc2ccccn12` was tested, and the displacement was 8.1%. `COc1cccc2cc(-c3nc(-c4ccc(C)c(C)c4)cs3)c(=O)oc12` gave a displacement of 80.5%. Compound `C=CCN1Cc2c(sc(C)c2C)N(C(=O)c2ccccc2)C1` has a displacement of 1.9%. `COc1ccc(/C=C2/C(=O)ON=C2c2ccccc2)cc1` gave a displacement of 13.6%. `Cc1ccc(C)c(NC(=O)/C=C\C(=O)O)c1` showed a displacement of 18.4%. With `O=C(NCCO)C(=O)NCc1ccccc1` the displacement was 15%. `CN(C)c1ccc(C2/C(=C(\O)c3ccccc3)C(=O)C(=O)N2CCCCCC(=O)O)cc1` (centres undefined) was tested, and the displacement was -3.9%. In the case of `COc1ccccc1N1CCN(C(=O)c2ccncc2)CC1`, the displacement is reported as -0.6%. Compound `CC1(C)CC2CC(C)(CN2S(=O)(=O)c2ccc(C(=O)Nc3ccc(Cl)c(S(=O)(=O)N4CCOCC4)c3)cc2)C1` (centres undefined) has a displacement of 12.3%. For `Cc1cc(C)c(NC(=O)C(C)Oc2cccc(Cl)c2)c(C)c1` (centres undefined), the displacement was -5%. `CCCC1=NN(C(=O)Cc2ccc([N+](=O)[O-])cc2)C(O)(C(F)(F)F)C1` (centres undefined) showed a displacement of 1.4%. In the case of `CCOc1ccc(NC(=O)/C(=C\c2cccnc2)NC(=O)c2ccc(C)cc2)cc1`, the displacement is reported as -4.8%. In the case of `Cc1ccc(CCC(=O)Nc2ccc([N+](=O)[O-])cc2)o1`, the displacement is reported as 12.8%. `Cc1nccn1S(=O)(=O)c1ccc2ccccc2c1` showed a displacement of -2.8%. `O=C1C(Nc2ccccc2)=CC(c2ccccc2[N+](=O)[O-])N1c1ccccc1` (centres undefined) showed a displacement of -2.5%. For `COc1cc2c(cc1NC(=O)c1cccc([N+](=O)[O-])c1C)oc1ccccc12`, the displacement was 1.2%. Work on `COC(=O)C1=C(C)N(C)C(C)=C(C(=O)OC)C1c1ccc(OCc2ccccc2)c(OC)c1` yielded a displacement of 0.2%. Compound `C/C(=N/NC(=O)COc1ccc(C)cc1)c1cccc([N+](=O)[O-])c1` has a displacement of 10%. `CC1=C(C(=O)Nc2ccccc2C)C(c2ccc(C)cc2)NC(=O)N1` (centres undefined) showed a displacement of -5.1%. Work on `Cc1cc(C)c2oc(-c3cccc(NC(=O)c4cccc5ccccc45)c3)nc2c1` yielded a displacement of -10.7%. In the case of `O=C(Nc1ccccc1)c1ccccc1N=Cc1ccc(C=Nc2ccccc2C(=O)Nc2ccccc2)cc1`, the displacement is reported as 121%. `CCN1C(=O)/C(=C/c2nc3ccccc3c(=O)n2-c2cccc(C)c2)c2ccccc21` was tested, and the displacement was -4.1%. Compound `Cc1ccccc1C(=O)Nc1cccc(Oc2ccc3c(c2)C(=O)N(c2ccccc2)C3=O)c1` has a displacement of 8.7%. In the case of `O=C(COc1ccc2c3c(c(=O)oc2c1)CCCC3)c1ccc(F)cc1`, the displacement is reported as -1.3%. For `CN(C)NC(=O)C1CCC(C)(C(=O)O)C1(C)C` (centres undefined), the displacement was 1.4%. Compound `CCN(CC)Cc1ccc(OC(C)C)c(CN(CC)CC)c1` has a displacement of -6.6%. Work on `CCc1nnc(N/N=C/c2c(Cl)cccc2Cl)n1N` yielded a displacement of 12.4%. `COc1ccc(NC(=O)Nc2nnc(-c3ccc(OC)c(OC)c3)s2)cc1` was tested, and the displacement was 22.6%. `CC(=O)N(C(C)=O)c1cccc2c(N(C(C)=O)C(C)=O)cccc12` gave a displacement of 1%. With `COc1ccc(C(=O)N2CCN(S(=O)(=O)c3ccc(Cl)cc3)CC2)cc1OC` the displacement was -9.4%. `COc1ccc(S(=O)(=O)N(CC(=O)NCCSCc2ccc(Cl)cc2)c2cc(C)cc(C)c2)cc1OC` gave a displacement of 11.3%. For `CCOC(=O)c1c(NC(=O)c2ccc(Cl)cc2Cl)sc(C(=O)Nc2ccccc2F)c1C`, the displacement was -3.9%. `Cc1cccc(/C(N)=N/OC(=O)c2ccccc2I)c1` was tested, and the displacement was 1.1%. In the case of `COc1ccccc1NC(=O)C1=C(C)NC(=O)NC1c1ccccc1Br` (centres undefined), the displacement is reported as 10.1%. In the case of `O=S(=O)(/N=C/c1ccccc1O)c1cccs1`, the displacement is reported as 19.9%. With `CC(=O)Nc1ccc(S(=O)(=O)NNC(=O)c2cccc(Cl)c2)cc1` the displacement was -8.5%. `Cc1ccc(-c2nc3ccccc3o2)cc1NC(=S)NC(=O)c1ccco1` gave a displacement of 8.7%.
